The record followed here is PMC4336329 (PLoS ONE, 2015).

Screen size: about 310,000 compounds; about 14,000 (4.5%) showed an effect of 50% or more. The effect is printed as a negative number. Some of the results follow.
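Also: peak tail current of the secondary pulse compared with the same well before compound.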

This assay deals with human ether-à-go-go-related gene (hERG) potassium channel (human, UniProt Q12809). Kind of assay: primary screen, population patch clamp on CHO cells stably expressing hERG.
human ether-à-go-go-related gene (hERG) potassium channel, sequence (Q12809 whole entry, looked up): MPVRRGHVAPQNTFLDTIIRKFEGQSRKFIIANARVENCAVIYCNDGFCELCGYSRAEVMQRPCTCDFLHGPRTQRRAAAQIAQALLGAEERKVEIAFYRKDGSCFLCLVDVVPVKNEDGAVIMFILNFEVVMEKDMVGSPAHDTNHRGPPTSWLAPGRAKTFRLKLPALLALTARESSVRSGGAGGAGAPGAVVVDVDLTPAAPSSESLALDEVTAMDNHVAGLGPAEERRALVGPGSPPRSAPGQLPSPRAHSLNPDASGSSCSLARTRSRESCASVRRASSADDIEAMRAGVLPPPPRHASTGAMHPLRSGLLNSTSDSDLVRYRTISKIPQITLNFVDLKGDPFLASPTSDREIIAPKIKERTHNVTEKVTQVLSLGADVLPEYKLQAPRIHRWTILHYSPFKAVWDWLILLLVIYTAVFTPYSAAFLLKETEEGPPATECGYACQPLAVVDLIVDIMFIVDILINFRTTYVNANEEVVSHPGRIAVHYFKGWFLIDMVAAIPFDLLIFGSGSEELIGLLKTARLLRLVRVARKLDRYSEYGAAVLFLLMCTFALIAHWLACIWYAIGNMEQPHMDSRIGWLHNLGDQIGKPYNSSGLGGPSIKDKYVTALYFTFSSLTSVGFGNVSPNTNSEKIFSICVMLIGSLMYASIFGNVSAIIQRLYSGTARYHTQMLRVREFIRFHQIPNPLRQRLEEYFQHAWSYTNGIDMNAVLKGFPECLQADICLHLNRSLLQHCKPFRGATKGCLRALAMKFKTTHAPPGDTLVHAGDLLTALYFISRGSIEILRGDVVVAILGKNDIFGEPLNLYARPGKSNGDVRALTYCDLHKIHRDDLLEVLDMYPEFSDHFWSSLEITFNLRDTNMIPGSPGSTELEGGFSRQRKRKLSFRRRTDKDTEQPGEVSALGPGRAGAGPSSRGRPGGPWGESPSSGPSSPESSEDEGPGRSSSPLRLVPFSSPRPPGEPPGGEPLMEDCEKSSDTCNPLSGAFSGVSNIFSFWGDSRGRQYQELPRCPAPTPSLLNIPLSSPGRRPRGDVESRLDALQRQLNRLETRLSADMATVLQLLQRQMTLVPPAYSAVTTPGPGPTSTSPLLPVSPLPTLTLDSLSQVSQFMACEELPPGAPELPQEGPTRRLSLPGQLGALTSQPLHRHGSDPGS
Turning to `CC(C)[C@H](NC(=O)[C@@H]1Cc2c([nH]c3ccccc23)C2c3ccccc3C(=O)N21)C(=O)NCC1CCCO1` (stereo partly shown), the “hERG current change (%, negative = inhibition) at 10uM” value is reported as 5.33%.
For `Cc1ccc2c(CC(=O)OCc3nc(N)nc(Nc4ccccc4C)n3)coc2c1`, the “hERG current change (%, negative = inhibition) at 10uM” value was 5.79%.
Regarding `O=C(Nc1ccccc1)c1ccc2c(c1)OCO2`, the “hERG current change (%, negative = inhibition) at 10uM” value turned out to be 3%.
The result for `Brc1cccc(C=Nc2cccc3ncccc23)c1` reads 7.37%; that for `CC1(C)CC2CC(C)(CN2C(=O)C23CCC(C)(C(=O)O2)C3(C)C)C1` (stereo not shown), -8.69%.
The result for `CCc1ccc(-c2cc(C)no2)cc1S(=O)(=O)NCc1ccco1` reads -12.6%; that for `CCOC(=O)c1c[nH]c2c(C(=O)c3ccccc3)cc(Cl)cc2c1=O`, -5.13%; that for `O=C(CNC(=O)c1ccc(Cl)cc1Cl)OCn1nnc2ccccc2c1=O`, 5.27%.
The result for `CCOc1ccccc1N1CCN(Cc2ccc(OC)c(OC)c2OC)CC1` reads -51.9%; that for `Cc1nc(CSc2nnc3scc(-c4ccccc4)n23)cs1`, 6.9%; that for `CC1(C)CC(=O)C(C=NCCN2CCN(C(=O)C34CC5CC(CC(C5)C3)C4)CC2)=C(O)C1`, 10.1%.
As for `Cc1ccc2nc(SCC(=O)NC(=O)NCc3ccco3)[nH]c2c1`, the “hERG current change (%, negative = inhibition) at 10uM” value is recorded as -17.7%.
Turning to `O=C(Nc1ccc([N+](=O)[O-])cc1)Nc1nc(-c2ccc(Cl)s2)cs1`, the “hERG current change (%, negative = inhibition) at 10uM” value was determined as 25.7%.
Turning to `CCc1cc2c(=O)n(-c3ccccc3)cnc2s1`, the “hERG current change (%, negative = inhibition) at 10uM” value was 5.13%.
As for `Cc1nonc1C(=O)N1CCCC(N2CCN(c3ccc(F)cc3)CC2)C1` (stereo not shown), the “hERG current change (%, negative = inhibition) at 10uM” value is reported as -51.8%.
With `Br.CN1CCc2cc3c(c4c2[C@H]1[C@H](O)c1ccccc1-4)OCO3`, the “hERG current change (%, negative = inhibition) at 10uM” value was -34.8%.
The result for `COc1cc(NC(=O)c2ccco2)ccc1NC(=O)C(C)C` reads -1.58%.
The result for `CC(=O)Nc1cccc(Cl)c1C(=O)O` reads 8.38%; that for `CCN(Cc1ccccc1)S(=O)(=O)c1ccc(OC)c2ncccc12`, -48.3%.
The result for `C=CCn1c(SCC2=C(C(=O)OCC)C(C)NC(=O)N2)nnc1C1CCCCC1` (stereo not shown) reads 10%.
With `CN(C(=O)CSc1nc2cc([N+](=O)[O-])ccc2n1-c1ccc(F)cc1)C1CCS(=O)(=O)C1` (stereo not shown), the “hERG current change (%, negative = inhibition) at 10uM” value is listed as 2.56%.
The result for `C/C(=N\Nc1cc(C)nc(-c2ccccc2O)n1)c1ccccc1O` reads 18.7%; that for `CCOC(=O)COc1ccc(S(=O)(=O)NCc2ccncc2)cc1`, -10.6%.
With `O=C(COc1ccc(Br)cc1)N1CCN(C2CCCC2)CC1`, the “hERG current change (%, negative = inhibition) at 10uM” value is -63.6%.
The result for `CC(/C=N/NC(=O)c1nnn(-c2nonc2N)c1C)=C\c1ccccc1` reads 11%.
Then `CSc1nnc(C(C)(C)C)c(=O)n1/N=C/c1ccccc1O`, with -5.95%.
Then `O=C(O)c1cnc(-c2ccccc2)nc1Oc1ccccc1`, with 29%; and `O=C1NCC(O)=C1C=NCCCO`, with 12.6%; and `COc1cccc(CSc2nc3ccccc3cc2C=O)c1`, with 15%.
With `COc1cccc(C2C(C#N)=C(N)N(N(C)C)C3=C2C(=O)CCC3)c1OC` (stereo not shown), the “hERG current change (%, negative = inhibition) at 10uM” value was determined as 26.5%.
Then `COc1ccc(/C=C(/NC(=O)c2ccccc2)C(=O)N2CCCC2)cc1`, with 2.89%; and `COc1ccccc1CCNCc1cccc(C(F)(F)F)c1.O=C(O)C(=O)O`, with 8.94%.
Then `COc1ccc(C)cc1S(=O)(=O)N1c2ccccc2CC1C` (stereo not shown), with -21.9%; and `O=C(COc1ccc2c(-c3ccccc3)cc(=O)oc2c1)NC1CCS(=O)(=O)C1` (stereo not shown), with 5.36%; and `Cc1ccc(NC(=O)COC(=O)CCc2c[nH]c3ccccc23)c(C)c1`, with 9.87%.
Then `C/C(=N\NC(=O)c1ccncc1)c1cccc(NC(=O)c2ccc(C(C)(C)C)cc2)c1`, with -53.7%; and `CC(C(=O)Nc1cccc(Br)c1)c1ccc([N+](=O)[O-])cc1` (stereo not shown), with -47.3%.
In the case of `CCC(C)c1ccc(NC(=O)C2CCN(c3ncccn3)CC2)cc1` (stereo not shown), the “hERG current change (%, negative = inhibition) at 10uM” value was found to be 13.2%.
`CCSc1nnc(N)s1`: the “hERG current change (%, negative = inhibition) at 10uM” value stood at 12.3%.
Then `O=C(CSc1ccc2ccccc2c1)Nc1ccc(S(=O)(=O)Nc2nccs2)cc1`, with 8.33%; and `CC1Cc2ccccc2N1C(=O)CSc1nc2ccccc2s1` (stereo not shown), with 22.4%; and `Cc1occc1C(=O)N/N=C/c1cnn(C)c1C`, with -7.6%.
For the compound `CCc1ccc2nc(SCC(=O)Nc3nnc(C)s3)c(C)cc2c1`, the “hERG current change (%, negative = inhibition) at 10uM” value stood at 16%.
Then `CC(=O)c1ccc(NC(=S)NC(=O)Cc2ccc(Cl)cc2)cc1`, with 12.8%; and `CCN1C(=O)c2cccc3c(S(=O)(=O)NC(Cc4ccccc4)C(=O)O)ccc1c23` (stereo not shown), with 17.7%.
The result for `O=C(CSc1nnc(SCc2ccccc2)s1)NNC(=S)Nc1ccccc1` reads 31%; that for `COc1cccc(NC(=O)COC(=O)CCCC2=NS(=O)(=O)c3ccccc3N2)c1`, 15.1%; that for `CN(C)CCCN(C(=O)c1ccc([N+](=O)[O-])o1)c1nc2cc3c(cc2s1)OCO3.Cl`, -71.8%.
As to `COc1cc(NC(=O)CN2CCN(c3ccccc3F)CC2)c(C)cc1[N+](=O)[O-]`, the “hERG current change (%, negative = inhibition) at 10uM” value was 28.2%.
With `O=C1Cc2ccccc2C(c2ccc(Cl)cc2)N1` (stereo not shown), the “hERG current change (%, negative = inhibition) at 10uM” value is -0.179%.
Take `COc1cc(Cl)ccc1OCc1cc(C(=O)N2CCC(N(C)C)C2)no1` (stereo not shown): the “hERG current change (%, negative = inhibition) at 10uM” value is on record as -26.6%.
Regarding `COC(=O)CCC(=O)N(CCN(C(=O)CCC(=O)OC)c1ccccc1)c1ccccc1`, the “hERG current change (%, negative = inhibition) at 10uM” value amounted to 9.35%.
Then `CC1(c2nnc(-c3ccncc3)o2)CC(c2ccc(Cl)cc2)=NO1` (stereo not shown), with -26.8%; and `CC(C)Cn1cc(Cl)c(=O)n(CC(C)C)c1=O`, with 35.1%; and `Cc1ccc(S(=O)(=O)NCc2ccccc2)cc1C(=O)NCc1ccccn1`, with -0.432%.
The result for `Cc1ccc(C2C3=C(Nc4[nH]n(-c5ccccc5)c(=O)c42)c2ccccc2C3=O)cc1` (stereo not shown) reads -12.1%; that for `CSc1ccccc1OCc1cc(C(=O)NCCc2ccco2)no1`, 4.27%.
Regarding `Cl.Fc1ccc(Nc2nc(N/N=C/c3ccco3)nc(N3CCCCC3)n2)cc1`, the “hERG current change (%, negative = inhibition) at 10uM” value is recorded as 35.1%.
The result for `Cc1cc(C(=O)N/N=C\c2cc(C(C)(C)C)ccc2O)n[nH]1` reads -40.5%; that for `CCOC(=O)c1ccc(NC(=O)CSc2nnc(C3CC3)n2C)cc1`, 1.76%; that for `COc1ccc(OC)c(C2C(C(=O)c3ccccc3)=C(C)Nc3nc4ccccc4n32)c1` (stereo not shown), 6.63%.
`Cc1ccc(N(CC(=O)NCc2cccnc2)S(C)(=O)=O)cc1C`: the “hERG current change (%, negative = inhibition) at 10uM” value was -1.16%.
Turning to `Cc1ccc(-c2nnc(NC(=O)c3ccco3)s2)cc1`, the “hERG current change (%, negative = inhibition) at 10uM” value is 8.92%.
As to `COc1ccc(N2CCN(CCCNC(=O)C3CCCN(S(=O)(=O)c4cnc[nH]4)C3)CC2)cc1` (stereo not shown), the “hERG current change (%, negative = inhibition) at 10uM” value worked out at 1.63%.
The result for `CCNc1c(N)c(=O)oc2ccccc12` reads 5.57%.
Regarding `CC(c1nnc(SCC(=O)c2c(N)n(C3CC3)c(=O)[nH]c2=O)n1-c1ccc(F)cc1)N(C)C` (stereo not shown), the “hERG current change (%, negative = inhibition) at 10uM” value is reported as 13.2%.
Then `COCc1ccc(C(=O)N(C)CC2CCCN(CCc3ccc(OC)cc3)C2)o1` (stereo not shown), with -69.5%; and `COc1ccc2c(c1)c(C(=O)CN1CCC(C(N)=O)CC1)c(C)n2C`, with 10.5%.
The result for `CCN(CC)S(=O)(=O)c1cc(NS(=O)(=O)c2cc(Cl)ccc2Cl)ccc1C` reads -9.73%; that for `CCCNC(C)C(=O)Nc1ccccc1C.Cl` (stereo not shown), 15.8%.
Then `O=C(COc1ccccc1Cl)NCCc1ccc2c(c1)OCCO2`, with -6.04%; and `COc1ccc(C(CNC(=O)c2ccccc2C)N2CCCC2)cc1` (stereo not shown), with -16.2%.
Regarding `CCCN1C(=O)S/C(=C/c2ccc(N3CCOCC3)o2)C1=O`, the “hERG current change (%, negative = inhibition) at 10uM” value is 4.9%.
Consider `Cc1ccc([N+](=O)[O-])cc1S(=O)(=O)NCC1COc2ccccc2O1` (stereo not shown), for which the “hERG current change (%, negative = inhibition) at 10uM” value is -10.6%.
Then `COc1ccccc1CNC(=O)c1cc(C(C)C)nc2ccccc12`, with -5.47%; and `Cc1ccc(Oc2cc(-n3nc(C)cc3C)ncn2)cc1`, with -18.8%.
With `CN(C(=O)c1ccc(NC(=O)Cc2cccc(NC(=O)C3CCCN(C(=O)C4CCCCC4)C3)c2)cc1)C1CCCC1` (stereo not shown), the “hERG current change (%, negative = inhibition) at 10uM” value is 7.55%.
Then `Nn1c(=O)[nH]c2ccccc2c1=O`, with 18.1%; and `COc1ccc(NC(=O)C(NC(=O)OC(C)(C)C)C(C)OCc2ccccc2)cc1` (stereo not shown), with 3.91%.
Turning to `O=C(COC(=O)CCCSc1nc2ccccc2[nH]1)NC(=O)NC1CCCC1`, the “hERG current change (%, negative = inhibition) at 10uM” value is reported as -2.19%.
The result for `Cc1ccccc1CN(c1ccc(C(=O)Nc2ccccc2C(=O)N2CCCC2)cc1)S(C)(=O)=O` reads -19.8%; that for `CN(Cc1nc2ccccc2[nH]1)C(=O)C1CCC(=O)N(C2CCCC2)C1` (stereo not shown), 1.99%; that for `CC1(C)CC(=O)C2=C(C1)OC(N)=C(C#N)C2CCc1ccccc1` (stereo not shown), 1.07%.
Then `COc1ccccc1OC(C)C(=O)Nc1ccccc1C(=O)NCc1cccnc1` (stereo not shown), with -4.35%; and `N#Cc1ccc(N2CCN(c3ccc(F)cc3)CC2)cc1`, with -16.9%; and `O=C(Nc1ccccc1F)N(Cc1ccc(F)cc1)Cc1nc2ccccc2c(=O)[nH]1`, with 23.3%.
The result for `CS(=O)(=O)N(Cc1ccc(C(=O)NN=C2CCCCCC2)cc1)c1ccccc1` reads -7.08%.
Regarding `CC(=O)C1=C(O)C(=O)N(c2nccs2)C1c1ccc(F)cc1` (stereo not shown), the “hERG current change (%, negative = inhibition) at 10uM” value is given as -1.19%.
